The source of these data is publication PMC4980666, “N-acylhydrazone inhibitors of influenza virus PA endonuclease with versatile metal binding modes” (Scientific Reports, 2016).

The target of this test is recombinant PA-Nter (residues 1–217 from the PA protein of influenza virus strain A/X-31) (Influenza A virus, UniProt P03433). Briefly: Plasmid-based endonuclease assay with recombinant PA-Nter. It counts as biochemical. Conditions: Enzyme assay with PA-Nter IC50, ssDNA plasmid substrate, Mn2+-containing buffer, 2 hr incubation.

Molecules are shown by their SMILES. “And” between values parts separate entries of the source, which are not always exact repeats. Identical values can stand only once. A value given as a limit tells only on which side of the number the result lay.

Regarding `COc1ccc(O)c(/C=N/NC(=O)c2cc(O)c(O)c(O)c2)c1` [Compound 16], the half-inhibitory concentration (IC50) amounted to 454 µM. `O=C(N/N=C/c1c(O)cc(O)cc1O)c1ccccc1O` [Compound 10]: the IC50 was determined as 68 µM.

As to `O=C(N/N=C/c1ccc(O)c(O)c1O)c1cc(O)c(O)c(O)c1` [Compound 20], the 50% inhibitory concentration (IC50) was 18 µM. Under `COc1cccc(/C=N/NC(=O)c2cc(O)c(O)c(O)c2)c1O` [Compound 19] stands greater than 500 µM; under `NC(=O)N/N=C/c1cccc(O)c1O` [Compound 1, N’-(2,3-dihydroxybenzylidene)-semicarbazide], 24 µM; under `O=C(N/N=C/c1ccccn1)c1cc(O)c(O)c(O)c1` [Compound 24], 131 µM. For `O=C(N/N=C/c1cc(O)ccc1O)c1cc(O)c(O)c(O)c1` [Compound 15] the value was 9 µM and 8.9 µM; for `COc1cccc(/C=N/NC(N)=O)c1O` [Compound 2], greater than 500 µM.

As for `COc1cccc(/C=N/NC(=O)c2ccccc2)c1O` [Compound 6], the half-maximal inhibitory concentration (IC50) was greater than 500 µM. Under `O=C(N/N=C/c1cccc(O)c1O)c1cc(O)c(O)c(O)c1` [Compound 18] stands 83 µM; under `O=C(N/N=C/c1cc(O)c(O)c(O)c1)c1cc(O)c(O)c(O)c1` [Compound 23], 7 µM and 8.7 µM; under `O=C(N/N=C/c1cccc(O)c1O)c1ccccc1O` [Compound 7], 54 µM. Regarding `O=C(N/N=C/c1c(O)cc(O)cc1O)c1cc(O)c(O)c(O)c1` [Compound 22], the IC50 stood at 75 µM. For `O=C(N/N=C/c1ccc[nH]1)c1cc(O)c(O)c(O)c1` [Compound 25] the value was ~40 µM and 40 µM; for `O=C(N/N=C/c1cc(O)c(O)c(O)c1)c1ccccc1O` [Compound 11], 45 µM; for `O=C(N/N=C/c1cccc(O)c1O)c1ccccc1` [Compound 5], 84 µM and 67 µM. As for `NC(=O)N/N=C/c1cc(O)c(O)c(O)c1` [Compound 27], the half-maximal inhibitory concentration (IC50) was 36 µM. Under `NNC(=O)c1cc(O)c(O)c(O)c1` [Compound 28, 3,4,5-trihydroxybenzohydrazide] stands ~40 µM and 40 µM; under `O=C(O)c1ccc(-c2cccc(/C=N/NC(=O)c3cc(O)c(O)c(O)c3)c2)cc1` [Compound 26], ~40 µM and 30 µM. Consider `O=C(N/N=C/c1cc(O)c(O)cc1O)c1cc(O)c(O)c(O)c1` [Compound 21], for which the IC50 stood at 13 µM. Under `O=C(N/N=C/c1cc(O)c(O)cc1O)c1ccccc1O` [Compound 9] stands 34 µM. With `CCCCCCCC(=O)N/N=C/c1cccc(O)c1O` [Compound 3], the 50% inhibitory concentration (IC50) is greater than 500 µM. Under `CCCCCCCC(=O)N/N=C/c1cccc(OC)c1O` [Compound 4] stands greater than 500 µM; under `O=C(N/N=C/c1ccc(O)cc1O)c1cc(O)c(O)c(O)c1` [Compound 17], ≥ 370 µM and 482 µM; under `COc1cc(C(=O)N/N=C/c2cc(O)ccc2O)cc(OC)c1OC` [Compound 12], greater than 500 µM.

With `O=C(N/N=C/c1ccccc1O)c1cc(O)c(O)c(O)c1` [Compound 14], the 50% inhibitory concentration (IC50) was greater than 500 µM. For the compound `O=C(N/N=C/c1ccccc1)c1cc(O)c(O)c(O)c1` [Compound 13], the IC50 came out at 69 µM.

Regarding `COc1cccc(/C=N/NC(=O)c2ccccc2O)c1O` [Compound 8], the IC50 was greater than 500 µM.
